# Measured values published in the supplement of paper PMC12217912.
# The other results are listed elsewhere or left out. Sequences were assembled here from the parent chain. Inactive controls read about 0.05.
# B1: TEV protease; numbered along this chain (parent)
# chain: MGESLFKGPRDYNPISSSICHLTNESDGHTTSLYGIGFGPFIITNKHLFRRNNGTLVVQSLHGVFKVKDTTTLQQHLVDGRDMIIIRMPKDFPPFPQKLKFREPQREERICLVTTNFQTKSMSSMVSDTSCTFPSGDGIFWKHWIQTKDGQCGSPLVSTRDGFIVGIHSASNFTNTNNYFTSVPKNFMELLTNQEAQQWVSGWRLNADSVLWGGHKVFMVKPEEPFQPVKEATQL
# Variants of: B1
# Experiment: raw area under fraction-flipped curve 0-4 h after induction (AUC4h, not background-subtracted), DNA-recorder readout of cleavage of the substrate (dimensionless); higher = more cleavage of the substrate by the protease variant
# Settings: temperature: 34 °C; time window: 0-4 h after rhamnose induction
# Experimental: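 In vivo DNA recorder in E. coli TOP10(DE3) ΔrhaA at 34 °C. Each TEVp single-site mutant (parent TEVp 0) is paired with a single-site variant of the 7-mer TEVs (canonical ENLYFQ|S). The substrate sits between flexible linkers in a Bxb1-sfGFP-TEVs-SsrA fusion, so cleavage stabilises Bxb1 and speeds flipping of a recombination array, read by NGS. The value is the raw area under the fraction-flipped curve over 0-4 h after rhamnose induction (AUC4h), with ≥20 reads per time point. It is not background-subtracted; inactive controls average about 0.047.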
# 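Note: Bxb1 expression induced with 0.2% (w/v) L-rhamnose at OD600 near 0.5, cultures sampled hourly, flipped fraction per protease–substrate barcode pair counted by paired-end Illumina sequencing.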
Variant,area with substrate CNLYFQS,area with substrate HNLYFQS,area with substrate PNLYFQS,area with substrate QNLYFQS,area with substrate SNLYFQS,area with substrate TNLYFQS,area with substrate YNLYFQS,area with substrate FNLYFQS,area with substrate INLYFQS,area with substrate LNLYFQS,area with substrate MNLYFQS,area with substrate VNLYFQS,area with substrate WNLYFQS,area with substrate GNLYFQS,area with substrate KNLYFQS,area with substrate NNLYFQS,area with substrate RNLYFQS
MGESLFKGPRDYNPISSSICHLTNESDGHTTSLYGIGFGPFIITNKHLFRRNNETLVVQSLHGVFKVKDTTTLQQHLVDGRDMIIIRMPKDFPPFPQKLKFREPQREERICLVTTNFQTKSMSSMVSDTSCTFPSGDGIFWKHWIQTKDGQCGSPLVSTRDGFIVGIHSASNFTNTNNYFTSVPKNFMELLTNQEAQQWVSGWRLNADSVLWGGHKVFMVKPEEPFQPVKEATQL [G54E],0.052,0.0477,0.0671,0.0635,0.0564,0.0654,0.0551,,,,,,,,,,
MGESLFKGPRDYNPISSSICHLTNESDGHTTSLYGIGFGPFIITNKHLFRRNNGALVVQSLHGVFKVKDTTTLQQHLVDGRDMIIIRMPKDFPPFPQKLKFREPQREERICLVTTNFQTKSMSSMVSDTSCTFPSGDGIFWKHWIQTKDGQCGSPLVSTRDGFIVGIHSASNFTNTNNYFTSVPKNFMELLTNQEAQQWVSGWRLNADSVLWGGHKVFMVKPEEPFQPVKEATQL [T55A],0.0557,,0.0739,,0.0517,0.0469,0.0584,0.0682,0.0601,0.0692,0.0746,0.0263,0.0495,,,,
MGESLFKGPRDYNPISSSICHLTNESDGHTTSLYGIGFGPFIITNKHLFRRNNGDLVVQSLHGVFKVKDTTTLQQHLVDGRDMIIIRMPKDFPPFPQKLKFREPQREERICLVTTNFQTKSMSSMVSDTSCTFPSGDGIFWKHWIQTKDGQCGSPLVSTRDGFIVGIHSASNFTNTNNYFTSVPKNFMELLTNQEAQQWVSGWRLNADSVLWGGHKVFMVKPEEPFQPVKEATQL [T55D],0.036,0.0544,,,0.0563,0.0804,0.057,0.0513,,,0.0595,,,0.049,,,
MGESLFKGPRDYNPISSSICHLTNESDGHTTSLYGIGFGPFIITNKHLFRRNNGLLVVQSLHGVFKVKDTTTLQQHLVDGRDMIIIRMPKDFPPFPQKLKFREPQREERICLVTTNFQTKSMSSMVSDTSCTFPSGDGIFWKHWIQTKDGQCGSPLVSTRDGFIVGIHSASNFTNTNNYFTSVPKNFMELLTNQEAQQWVSGWRLNADSVLWGGHKVFMVKPEEPFQPVKEATQL [T55L],0.0567,0.055,0.071,,,0.0614,0.0573,,0.0698,,0.0588,,,0.0532,0.0799,0.0714,
MGESLFKGPRDYNPISSSICHLTNESDGHTTSLYGIGFGPFIITNKHLFRRNNGNLVVQSLHGVFKVKDTTTLQQHLVDGRDMIIIRMPKDFPPFPQKLKFREPQREERICLVTTNFQTKSMSSMVSDTSCTFPSGDGIFWKHWIQTKDGQCGSPLVSTRDGFIVGIHSASNFTNTNNYFTSVPKNFMELLTNQEAQQWVSGWRLNADSVLWGGHKVFMVKPEEPFQPVKEATQL [T55N],0.0721,0.0521,,,0.0615,0.0919,0.0588,0.0548,0.044,0.0496,0.083,0.0713,0.0542,0.0715,0.0679,,
MGESLFKGPRDYNPISSSICHLTNESDGHTTSLYGIGFGPFIITNKHLFRRNNGTLVHQSLHGVFKVKDTTTLQQHLVDGRDMIIIRMPKDFPPFPQKLKFREPQREERICLVTTNFQTKSMSSMVSDTSCTFPSGDGIFWKHWIQTKDGQCGSPLVSTRDGFIVGIHSASNFTNTNNYFTSVPKNFMELLTNQEAQQWVSGWRLNADSVLWGGHKVFMVKPEEPFQPVKEATQL [V58H],0.0494,0.0452,,,,,,,,,0.0449,,0.0386,,,0.055,
MGESLFKGPRDYNPISSSICHLTNESDGHTTSLYGIGFGPFIITNKHLFRRNNGTLVNQSLHGVFKVKDTTTLQQHLVDGRDMIIIRMPKDFPPFPQKLKFREPQREERICLVTTNFQTKSMSSMVSDTSCTFPSGDGIFWKHWIQTKDGQCGSPLVSTRDGFIVGIHSASNFTNTNNYFTSVPKNFMELLTNQEAQQWVSGWRLNADSVLWGGHKVFMVKPEEPFQPVKEATQL [V58N],0.0399,0.0553,,,,0.0546,,0.0519,,0.0488,,,,,,,
MGESLFKGPRDYNPISSSICHLTNESDGHTTSLYGIGFGPFIITNKHLFRRNNGTLVVDSLHGVFKVKDTTTLQQHLVDGRDMIIIRMPKDFPPFPQKLKFREPQREERICLVTTNFQTKSMSSMVSDTSCTFPSGDGIFWKHWIQTKDGQCGSPLVSTRDGFIVGIHSASNFTNTNNYFTSVPKNFMELLTNQEAQQWVSGWRLNADSVLWGGHKVFMVKPEEPFQPVKEATQL [Q59D],0.0431,,0.0669,,,,,,0.0575,,,,,0.0602,,0.061,
MGESLFKGPRDYNPISSSICHLTNESDGHTTSLYGIGFGPFIITNKHLFRRNNGTLVVLSLHGVFKVKDTTTLQQHLVDGRDMIIIRMPKDFPPFPQKLKFREPQREERICLVTTNFQTKSMSSMVSDTSCTFPSGDGIFWKHWIQTKDGQCGSPLVSTRDGFIVGIHSASNFTNTNNYFTSVPKNFMELLTNQEAQQWVSGWRLNADSVLWGGHKVFMVKPEEPFQPVKEATQL [Q59L],0.0594,0.0565,0.0756,,0.0798,0.0626,,0.0385,,0.0723,,,,0.0749,,0.0866,0.0651
MGESLFKGPRDYNPISSSICHLTNESDGHTTSLYGIGFGPFIITNKHLFRRNNGTLVVPSLHGVFKVKDTTTLQQHLVDGRDMIIIRMPKDFPPFPQKLKFREPQREERICLVTTNFQTKSMSSMVSDTSCTFPSGDGIFWKHWIQTKDGQCGSPLVSTRDGFIVGIHSASNFTNTNNYFTSVPKNFMELLTNQEAQQWVSGWRLNADSVLWGGHKVFMVKPEEPFQPVKEATQL [Q59P],0.0348,,0.0235,0.0455,,0.0454,,,,,,0.0359,,,0.0237,,0.0356
MGESLFKGPRDYNPISSSICHLTNESDGHTTSLYGIGFGPFIITNKHLFRRNNGTLVVQSPHGVFKVKDTTTLQQHLVDGRDMIIIRMPKDFPPFPQKLKFREPQREERICLVTTNFQTKSMSSMVSDTSCTFPSGDGIFWKHWIQTKDGQCGSPLVSTRDGFIVGIHSASNFTNTNNYFTSVPKNFMELLTNQEAQQWVSGWRLNADSVLWGGHKVFMVKPEEPFQPVKEATQL [L61P],0.0653,0.0618,0.0681,,,0.109,0.0677,,0.0266,,0.0629,0.0716,0.0625,0.0814,0.0816,,
MGESLFKGPRDYNPISSSICHLTNESDGHTTSLYGIGFGPFIITNKHLFRRNNGTLVVQSRHGVFKVKDTTTLQQHLVDGRDMIIIRMPKDFPPFPQKLKFREPQREERICLVTTNFQTKSMSSMVSDTSCTFPSGDGIFWKHWIQTKDGQCGSPLVSTRDGFIVGIHSASNFTNTNNYFTSVPKNFMELLTNQEAQQWVSGWRLNADSVLWGGHKVFMVKPEEPFQPVKEATQL [L61R],0.0799,0.0612,,,0.0835,0.0644,0.069,0.101,0.0691,0.0695,,0.0739,0.0562,0.0971,0.0702,,
MGESLFKGPRDYNPISSSICHLTNESDGHTTSLYGIGFGPFIITNKHLFRRNNGTLVVQSLLGVFKVKDTTTLQQHLVDGRDMIIIRMPKDFPPFPQKLKFREPQREERICLVTTNFQTKSMSSMVSDTSCTFPSGDGIFWKHWIQTKDGQCGSPLVSTRDGFIVGIHSASNFTNTNNYFTSVPKNFMELLTNQEAQQWVSGWRLNADSVLWGGHKVFMVKPEEPFQPVKEATQL [H62L],0.0417,,,,,0.0605,0.0569,0.0629,,0.0566,0.0654,,,,0.0726,0.0438,
MGESLFKGPRDYNPISSSICHLTNESDGHTTSLYGIGFGPFIITNKHLFRRNNGTLVVQSLHSVFKVKDTTTLQQHLVDGRDMIIIRMPKDFPPFPQKLKFREPQREERICLVTTNFQTKSMSSMVSDTSCTFPSGDGIFWKHWIQTKDGQCGSPLVSTRDGFIVGIHSASNFTNTNNYFTSVPKNFMELLTNQEAQQWVSGWRLNADSVLWGGHKVFMVKPEEPFQPVKEATQL [G63S],0.0484,0.0581,0.0702,,0.0666,0.0564,0.0547,,,0.0647,0.0689,,0.0566,0.0506,,,
MGESLFKGPRDYNPISSSICHLTNESDGHTTSLYGIGFGPFIITNKHLFRRNNGTLVVQSLHGVDKVKDTTTLQQHLVDGRDMIIIRMPKDFPPFPQKLKFREPQREERICLVTTNFQTKSMSSMVSDTSCTFPSGDGIFWKHWIQTKDGQCGSPLVSTRDGFIVGIHSASNFTNTNNYFTSVPKNFMELLTNQEAQQWVSGWRLNADSVLWGGHKVFMVKPEEPFQPVKEATQL [F65D],0.0747,0.0601,,,,0.0564,0.0557,,0.0554,0.0606,,0.0795,,,,,
MGESLFKGPRDYNPISSSICHLTNESDGHTTSLYGIGFGPFIITNKHLFRRNNGTLVVQSLHGVHKVKDTTTLQQHLVDGRDMIIIRMPKDFPPFPQKLKFREPQREERICLVTTNFQTKSMSSMVSDTSCTFPSGDGIFWKHWIQTKDGQCGSPLVSTRDGFIVGIHSASNFTNTNNYFTSVPKNFMELLTNQEAQQWVSGWRLNADSVLWGGHKVFMVKPEEPFQPVKEATQL [F65H],0.06,0.0605,0.0619,0.0581,,0.0601,0.0786,,0.064,,,,,0.094,0.0638,0.0662,
MGESLFKGPRDYNPISSSICHLTNESDGHTTSLYGIGFGPFIITNKHLFRRNNGTLVVQSLHGVFGVKDTTTLQQHLVDGRDMIIIRMPKDFPPFPQKLKFREPQREERICLVTTNFQTKSMSSMVSDTSCTFPSGDGIFWKHWIQTKDGQCGSPLVSTRDGFIVGIHSASNFTNTNNYFTSVPKNFMELLTNQEAQQWVSGWRLNADSVLWGGHKVFMVKPEEPFQPVKEATQL [K66G],0.0568,0.0556,0.058,,,0.0635,0.044,,0.0549,0.0548,0.0605,0.0702,0.0544,,,0.0782,
MGESLFKGPRDYNPISSSICHLTNESDGHTTSLYGIGFGPFIITNKHLFRRNNGTLVVQSLHGVFNVKDTTTLQQHLVDGRDMIIIRMPKDFPPFPQKLKFREPQREERICLVTTNFQTKSMSSMVSDTSCTFPSGDGIFWKHWIQTKDGQCGSPLVSTRDGFIVGIHSASNFTNTNNYFTSVPKNFMELLTNQEAQQWVSGWRLNADSVLWGGHKVFMVKPEEPFQPVKEATQL [K66N],0.0597,0.0355,0.112,,0.0589,0.0611,,0.0703,,,,,0.0491,,,,
MGESLFKGPRDYNPISSSICHLTNESDGHTTSLYGIGFGPFIITNKHLFRRNNGTLVVQSLHGVFKFKDTTTLQQHLVDGRDMIIIRMPKDFPPFPQKLKFREPQREERICLVTTNFQTKSMSSMVSDTSCTFPSGDGIFWKHWIQTKDGQCGSPLVSTRDGFIVGIHSASNFTNTNNYFTSVPKNFMELLTNQEAQQWVSGWRLNADSVLWGGHKVFMVKPEEPFQPVKEATQL [V67F],0.066,0.0627,,,,,,0.0715,,0.0504,0.0738,,0.0376,,0.0655,0.047,
MGESLFKGPRDYNPISSSICHLTNESDGHTTSLYGIGFGPFIITNKHLFRRNNGTLVVQSLHGVFKIKDTTTLQQHLVDGRDMIIIRMPKDFPPFPQKLKFREPQREERICLVTTNFQTKSMSSMVSDTSCTFPSGDGIFWKHWIQTKDGQCGSPLVSTRDGFIVGIHSASNFTNTNNYFTSVPKNFMELLTNQEAQQWVSGWRLNADSVLWGGHKVFMVKPEEPFQPVKEATQL [V67I],0.0682,0.0688,0.0521,,,0.039,,,,,0.0719,,0.0791,,0.0608,,
